This note sets out measurements from PubChem BioAssay AID360 (National Center for Advancing Translational Sciences (NCATS), 2006).

The campaign covered roughly 48,000 compounds. About 550 (1.1%) were called active. Roughly 4% stayed inconclusive and do not appear here. Rule as the data show it: active = potency below about 15 µM; inconclusive = mostly about 16 µM to 33 µM; inactive = weaker than that. Some of the results follow.
Potency is read from the fitted curve at half-maximal effect.

The target of this test is Lysosomal acid glucosylceramidase (Homo sapiens) (UniProt P04062). Briefly: Glucocerebrosidase.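 Also: the screen sought inhibitors.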 As to conditions: purified enzyme, resorufin glucoside fluorescence (screen aimed at inhibitors), 20 min. In a few lines: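 Normal human glucocerebrosidase (0.2 nM final) was assayed with resorufin β-D-glucopyranoside (30 uM final) in 50mM citric acid/KH2PO4, 10mM sodium taurocholate, 0.01% tween-20, pH 5.9. Compounds were titrated; fluorescence (Ex 548, Em 600) read after 20 min at RT.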
Chain of UniProt P04062 (P04062 whole entry, looked up): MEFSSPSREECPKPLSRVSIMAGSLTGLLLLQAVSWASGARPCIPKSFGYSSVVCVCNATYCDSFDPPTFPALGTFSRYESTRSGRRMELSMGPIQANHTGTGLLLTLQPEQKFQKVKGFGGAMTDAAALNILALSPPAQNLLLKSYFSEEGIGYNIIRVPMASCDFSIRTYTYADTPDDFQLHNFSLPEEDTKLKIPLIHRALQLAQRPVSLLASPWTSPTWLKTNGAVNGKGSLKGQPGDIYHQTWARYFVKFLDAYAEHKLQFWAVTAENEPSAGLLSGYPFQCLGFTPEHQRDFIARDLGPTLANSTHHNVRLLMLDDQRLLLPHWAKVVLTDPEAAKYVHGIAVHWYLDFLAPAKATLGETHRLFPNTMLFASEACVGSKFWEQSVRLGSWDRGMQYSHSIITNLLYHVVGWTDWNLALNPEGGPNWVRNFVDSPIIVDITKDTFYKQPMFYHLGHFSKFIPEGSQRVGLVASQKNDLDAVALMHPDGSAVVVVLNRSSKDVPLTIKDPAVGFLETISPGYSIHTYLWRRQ
Consider `COC(=O)Nc1nc2c(C)cccc2s1`, for which the Potency is inactive: > 76.9 µM.
The result for `Cc1c(-c2ccc(F)cc2)nc(N)c(C#N)c1-c1ccco1` reads inactive: > 76.9 µM; that for `COc1ccc2oc(=O)c(C(=O)N3CCc4ccccc43)cc2c1`, inactive: > 76.9 µM.
The result for `Cc1ccc(Cl)cc1N(CC(=O)NC1CCCCC1)S(C)(=O)=O` reads inactive: > 76.9 µM; that for `COC(=O)CN(c1cccc(OC)c1)S(C)(=O)=O`, inactive: > 76.9 µM.
The result for `Cc1ccc(S(=O)(=O)c2c(N)n(NC(=O)C3CC3)c3nc4ccccc4nc23)cc1` reads inactive: > 76.9 µM; that for `CCOC(=O)C1CCN(C(=O)Nc2ccc3oc(C)nc3c2)CC1`, inactive: > 76.9 µM.
As for `CCN1C(=O)CC(N2CCC(Nc3ccc(F)cc3)CC2)C1=O` (stereo not drawn), the Potency was inactive: > 76.9 µM.
The result for `CCCc1nnc(SCC(=O)Nc2ccc(OCC)cc2)n1N` reads inactive: > 76.9 µM.
Consider `O=C(O)C1CC1c1ccc(Br)cc1` (stereo not drawn), for which the Potency was inactive: > 76.9 µM.
The result for `CCOc1ccc2cc(C#N)c(SCC(=O)N3CCOCC3)nc2c1` reads inactive: > 76.9 µM; that for `C=CCc1cccc(C2Nc3ccccc3C(=O)N2O)c1O` (stereo not drawn), inactive: > 76.9 µM; that for `O=C(NCc1ccccc1)NC(=O)c1ccccc1`, inactive: > 76.9 µM.
The result for `O=C(NC(=O)c1ccc(Cl)c(Cl)c1)OC1CCS(=O)(=O)C1` (stereo not drawn) reads inactive: > 76.9 µM; that for `O=C(Oc1ccc2c(c1)CCC2)N1CCOCC1`, inactive: > 76.9 µM.
For `CCC(C)NS(=O)(=O)c1ccc(OCC(=O)NCc2cccnc2)cc1` (stereo not drawn), the Potency is inactive: > 76.9 µM.
The result for `O=C(CSc1nnc(-c2cccnc2)o1)c1cc2ccccc2oc1=O` reads inactive: > 76.9 µM; that for `COC(=O)[C@@H](NC(=O)NC(C)CCc1ccccc1)C(C)C` (stereo partly drawn), inactive: > 76.9 µM; that for `O=C(Nc1ccc2nc[nH]c2c1)c1ccco1`, inactive: > 76.9 µM.
Regarding `O=C1c2ccncc2C(=O)N1C1CCCCC1`, the Potency is inactive: > 76.9 µM.
The result for `COc1ccc(OC)c(NS(=O)(=O)c2cc(OC)ccc2OC)c1` reads inactive: > 76.9 µM; that for `O=S(=O)(c1ccc(S(=O)(=O)N2CCN3CCCC3C2)cc1)N1CCCC1` (stereo not drawn), inactive: > 76.9 µM; that for `C=CCn1c(N)cc(=O)nc1SCC(=O)NC(C)c1ccccc1` (stereo not drawn), inactive: > 76.9 µM.
The result for `COc1cc(OC)cc(C(=O)OCc2cc3ccccc3[nH]c2=O)c1` reads inactive: > 76.9 µM; that for `Nc1c(NCc2ccccc2F)c(=O)[nH]c(=O)n1Cc1ccccc1`, inactive: > 76.9 µM; that for `CCC(c1nnnn1Cc1ccccc1)N1CCN(C(=O)c2ccco2)CC1` (stereo not drawn), inactive: > 76.9 µM.
As for `Cc1nnc(NCCc2ccccc2)n(N)c1=O`, the Potency was inactive: > 76.9 µM.
Regarding `CC(C)N(C=O)C1(C(=O)NC2CCCCC2)CCCCC1`, the Potency is inactive: > 76.9 µM.
As to `CCCn1c(SCC(=O)NC(=O)Nc2ccc(C)cc2C)n[nH]c1=O`, the Potency is inactive: > 76.9 µM.
The result for `O=C(Oc1ccc(N(Cc2cccs2)C2=NS(=O)(=O)c3ccccc32)cc1)c1ccco1` reads inactive: > 76.9 µM; that for `Cc1ccc(NS(=O)(=O)c2ccc(CCC(=O)N3CCOCC3)cc2)cc1`, inactive: > 76.9 µM; that for `O=C(O)CN1CCN(Cc2ccccc2Cl)C1=O`, inactive: > 76.9 µM.
The result for `CSc1nnc2c(n1)OC(c1cccn1C)N(C(C)=O)c1ccccc1-2` (stereo not drawn) reads inactive: > 76.9 µM; that for `O=C(Nc1ccc(S(=O)(=O)N2CCc3ccccc32)cc1)c1ccc2c(c1)OCO2`, inactive: > 76.9 µM; that for `O=c1oc2ccccc2n1CSC1=NCCS1`, inactive: > 76.9 µM.
On to `CC1(C(=O)O)CCC(C(=O)N2CCOCC2)C1(C)C` (stereo not drawn), for which the Potency is inactive: > 76.9 µM.
On to `CCOC(=O)c1nn(-c2ccccc2)c(=O)c(C#N)c1C`, for which the Potency is inactive: > 76.9 µM.
The result for `CCC(C)NC(=O)CSc1nc2n[nH]c(C)c2c(=N)n1-c1ccc(OC)cc1` (stereo not drawn) reads inactive: > 76.9 µM; that for `O=C1C2CCCN2C(c2ccc(F)cc2)N1c1nccs1` (stereo not drawn), inactive: > 76.9 µM; that for `CCOC(=O)CC(=O)CSc1ccc2nnc(-c3ccc(F)cc3)n2n1`, inactive: > 76.9 µM.
The result for `COc1cc(CN(C)CCc2ccccn2)cc(OC)c1OC` reads inactive: > 76.9 µM; that for `Cc1cc2ccccc2c(=O)n1CC(=O)NCC(=O)N1CCCC1`, inactive: > 76.9 µM; that for `CCCCOC(=O)C1=C(C)Nc2ncnn2C1c1cccc(OC)c1` (stereo not drawn), inactive: > 76.9 µM.
The result for `CC(C)CSc1nc2c(c(=O)[nH]c(=O)n2C)n1CCc1ccccc1` reads inactive: > 76.9 µM.
Consider `COC(=O)C(C(=O)OC)N1C(=O)CCC1=O`, for which the Potency is inactive: > 76.9 µM.
`COc1ccc(S(=O)(=O)NCC(=O)N(CC(=O)NCC2CCCO2)c2c(C)cccc2C)cc1` (stereo not drawn): the Potency is inactive: > 76.9 µM.
The result for `O=C(O)CCn1ccnc1-c1ccccc1` reads inactive: > 76.9 µM; that for `CCOc1nc(-c2ccccc2)ccc1-c1noc(-c2ccco2)n1`, inactive: > 76.9 µM; that for `CNC(=O)Cn1c(=O)n(C)c2ccccc21`, inactive: > 76.9 µM.
Consider `CC(=O)Nc1cc(OC(C)=O)c2nonc2c1OC(C)=O`, for which the Potency is inactive: > 76.9 µM.
In the case of `CCOc1ccc(-c2nnc3sc(COc4ccc(C)cc4)nn23)cc1`, the Potency is inactive: > 76.9 µM.
Regarding `O=C(Nc1ccc(F)cc1)NC1(C(=O)NCc2ccco2)CCCCC1`, the Potency was inactive: > 76.9 µM.
The result for `Cc1cccc(C(=O)NC2CCN(CC(=O)N3CCOCC3)CC2)c1` reads inactive: > 76.9 µM.
Turning to `CCOc1ccc(C(=O)C(c2ccccc2)N2CCOCC2)cc1` (stereo not drawn), the Potency is inactive: > 76.9 µM.
For `Cc1cc2c(N=O)c(NO)ccc2[nH]1`, the Potency is inactive: > 76.9 µM.
The result for `CC(=O)NC(C)C12CC3CC(CC(C(=O)O)(C3)C1)C2` (stereo not drawn) reads inactive: > 76.9 µM; that for `CCN(CC)S(=O)(=O)c1cccc2cc(C(=O)O)c(O)cc12`, inactive: > 76.9 µM; that for `COc1ccc(NC(=O)CSc2nnc(-c3ccccc3Cl)n2Cc2ccco2)c(OC)c1`, inactive: > 76.9 µM.
In the case of `CCOCCCNC(=O)c1cn(C)c(=O)c2cc(OC)c(OC)cc12`, the Potency is inactive: > 76.9 µM.
`CC(C)C(c1nnnn1Cc1ccccc1)N1CCN(Cc2ccco2)CC1` (stereo not drawn): the Potency was inactive: > 76.9 µM.
The result for `O=C(c1cccs1)N1CCCc2ccccc21` reads inactive: > 76.9 µM.
Turning to `CCOc1ccccc1NC(=O)Cn1nnc(C(=O)Nc2ccc(C)cc2)c1N`, the Potency was inactive: > 76.9 µM.
Take `N#CC1=C(N)N(c2ccccc2)C2=C(C(=O)CCC2)C1c1ccsc1` (stereo not drawn): the Potency is active: 14.9 µM.
Take `CC1(C)Cc2noc(N)c2C(C)(C)N1OC(=O)c1cccs1`: the Potency is inactive: > 76.9 µM.
The result for `Cc1ccc(NC(=O)CSCC(=O)Nc2ncc3c(n2)CC(c2ccco2)CC3=O)cc1` (stereo not drawn) reads inactive: > 76.9 µM.
With `O=C(COC(=O)Cc1cccc(C(F)(F)F)c1)NCC1CCCO1` (stereo not drawn), the Potency is inactive: > 76.9 µM.
The result for `Cc1oc(-c2ccccc2F)nc1CN1CCC(C(=O)NCCC2=CCCCC2)CC1` reads inactive: > 76.9 µM.
The result for `COc1ccc(-c2noc(C3CCCN(C(=O)CCc4ccccc4)C3)n2)cc1` (stereo not drawn) reads inactive: > 76.9 µM.
The result for `CCCCN(CC)C(=O)c1ccc(Cl)c(Cl)c1` reads inactive: > 76.9 µM; that for `COc1cc2c(cc1OC)C(C(=O)NCc1cccnc1)C(c1cccnc1)N(C)C2=O` (stereo not drawn), inactive: > 76.9 µM.
Consider `Cc1cccc(OCc2nnc(SCc3cc(=O)n4cc(Br)ccc4n3)o2)c1`, for which the Potency result was “inactive”.
`Cn1c(=O)c2c(nc(NC3CCCCC3)n2CC(O)COc2ccccc2)n(C)c1=O` (stereo not drawn): the Potency is inactive: > 76.9 µM.
The result for `COc1cccc(OC)c1-c1nn2c(-c3cc(-c4ccccc4)n[nH]3)nnc2s1` reads “inactive”; that for `Cc1ccc(S(=O)(=O)NCCCC(=O)C=[N+]=[N-])cc1`, “inactive”; that for `CCC(=O)N1CCNC(=O)C1CC(=O)Nc1ccc(C)c(Cl)c1` (stereo not drawn), inactive: > 76.9 µM.
The result for `O=C(Nc1ccc(-c2noc(-c3cccs3)n2)cc1)c1cccnc1` reads inactive: > 76.9 µM.
The result for `CCC(c1nnc(SCC(=O)NCC2CCCO2)n1Cc1ccccc1)N(C)C` (stereo not drawn) reads inactive: > 76.9 µM; that for `COc1ccccc1CC1(C)NC(=O)N(CC(=O)N2CC(C)OC(C)C2)C1=O` (stereo not drawn), inactive: > 76.9 µM.
As to `CCOC(=O)c1sc(NC(=O)c2c(C)nn(Cc3ccccc3)c2C)cc1C`, the Potency is inactive: > 76.9 µM.
For the molecule `COc1ccc(C(=O)N2c3ccccc3CC2C)cc1OC` (stereo not drawn), the Potency is inactive: > 76.9 µM.
The result for `CCc1c(C)c(C#N)c2nc3ccccc3n2c1N(C)C` reads inactive: > 76.9 µM.
The result for `COc1ccc(OCc2nn3c(-c4ccccn4)nnc3s2)cc1` reads inactive: > 76.9 µM.
For the molecule `CCOC(=O)c1nnn(CC(=O)Nc2cccc(Cl)c2C)c1C(=O)OCC`, the Potency is inactive: > 76.9 µM.
The result for `COC(=O)c1ccc(C(=O)OC)c(NC2=NS(=O)(=O)c3ccccc32)c1` reads inactive: > 76.9 µM; that for `COC(=O)c1nnn(CC(=O)Nc2cccc(Cl)c2C)c1C(=O)OC`, inactive: > 76.9 µM.
The result for `COc1ccc(CCNC(=O)CSc2nnc(-c3ccccc3)o2)cc1OC` reads inactive: > 76.9 µM; that for `CCOC(=O)c1c(-c2ccccc2)[nH]c2ccc(O)cc12`, inactive: > 76.9 µM.
Regarding `CC1CCCC(C)N1C(=O)C1CC(c2ccc(F)cc2)=NO1` (stereo not drawn), the Potency was inactive: > 76.9 µM.
The result for `O=C(CCn1c(=O)oc2ccccc21)Nc1ccccc1` reads inactive: > 76.9 µM.
The result for `COC(=O)c1c(N)c2ccccc2[nH]c1=O` reads inactive: > 76.9 µM; that for `COc1ccccc1CNS(=O)(=O)c1c(C)noc1C`, inactive: > 76.9 µM; that for `O=C1OCC(c2ccccc2)=C1c1ccc(S(=O)(=O)N2CCOCC2)s1`, inactive: > 76.9 µM.
`CCOC(=O)C1CCN(C(=O)c2cn(-c3ccccc3)nc2-c2cccnc2)CC1`: the Potency is inactive: > 76.9 µM.
